Laboratory results reported in US20140235520A1, “Perfume Compositions” (Givaudan Nederland Services B.V., priority 2005, published 2014).

Test system: Escherichia coli ATCC 10536
Assay: Standardised biofilm detachment assay (96 well microtitre plate, crystal violet OD540) in quarter strength GPC base Formula A
Set-up: key: D indicates that the material is not yet identified, but is tentatively allocated to group A or B
Settings: ingredient of Example 4 composition, not yet identified
Text: In particular, a standardised biofilm detachment assay was used to quantify perfume ingredients in biofilm removal in terms of percent detachment values (PDVs). The standardised biofilm detachment assay is based on testing perfume compositions of 4 perfume ingredients present in equal amounts by weight, comprising 3 ingredients that fall in Group B and are non-active with regard to biofilm detachment (3,7-dimethyloct-6-en-1-ol; 1-ethenyl-1,5-dimethylhex-4-enyl acetate; and phenylmethyl-2-hydroxybenzoate) in admixture of a perfume ingredient under test. Each 4 component perfume mixture was used at a concentration of 0.25% w/w in a quarter strength general purpose cleaner (GPC) base test mixture having the composition of Formula A as set out in Example 1(a) below. […] PDVs for the perfume ingredients obtained in this way were rounded to the nearest integer. References in this specification to percent detachment value or PDV of a material means a value obtained using this standardised biofilm detachment assay, as defined above. […]
The crystal violet was quantified by measuring the optical density at 540 nm (OD540) of each well using a plate reader (model MRX, Dynatech laboratories, Chantilly, Va., USA). A percentage detachment value (PDV) for each test mixture was then calculated using the following formula: […]

CCCCCCC1=CCCC1=O [2-hexylcyclopent-2-en-1-one]
Group (tentative): D
